From paper PMC12136788
The list shows a part of the results.

T1: UNK ZnF1-3 (human, UniProt Q9C0B0 31-174)
T1 sequence: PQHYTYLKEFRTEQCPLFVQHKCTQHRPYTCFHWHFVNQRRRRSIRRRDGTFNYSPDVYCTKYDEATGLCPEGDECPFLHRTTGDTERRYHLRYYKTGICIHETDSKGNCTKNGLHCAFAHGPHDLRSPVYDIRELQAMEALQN

B1: chr15:99827826:99827827:+_ENSMUSG00000023025_ENSMUST00000100206|mus_hu|motif|central (ssRNA)
RNA: GGGAGUUCUACAGUCCGACGAUCAUUCAUAGCAGCAGCAUUUGUUUUAUAAGAUCCUGGCGAAUUAAAGCCAUUCACAAAACGGCCAUUGGGAAAGGGAGCCAGUGGUGUUUCAAAGUAAGGUGUAGGAUUUGGAGACCAAGACAACAGAGGAUUGAGCAUCA
B2: chr4:117809766:117809767:-_ENSMUSG00000033326_ENSMUST00000106406|mus_mus|FALSE|FALSE (ssRNA)
RNA: GGGAGUUCUACAGUCCGACGAUCAUUGGGCCCAGGCAAACAAAUUCAGGAACCUGUUUAACCCCUUCAAUGUUGCCCUCUAGUCCCAUCCCACCCCCACCCUCAACCAGCCCCACCCCACCCCUGACCAAGGGCGUAGCUAUACAACAGAGGAUUGAGCAUCA
B3: chr12:112777701:112777702:+_ENSMUSG00000021282_ENSMUST00000166123|mus_mus|FALSE|FALSE (ssRNA)
RNA: GGGAGUUCUACAGUCCGACGAUCCGGUCUCUGACAUGAAAAAAUUUUCGCCACUGAGGCUGUAAGCUUCUUGCUUGUAUGCUAUGUUUCCCCAAUACAGGUACCAAUGGCUGCGCAACAGCUCGUUUUCGUCAAAUAAAGACACAACAGAGGAUUGAGCAUCA
B4: chr11:74490848:74490849:-_ENSMUSG00000020745_ENSMUST00000021091|mus_mus|FALSE|FALSE (ssRNA)
RNA: GGGAGUUCUACAGUCCGACGAUCACAGAUAGCAGGAAGAAAAACAGUAAUUAAUAAUCCAACAUAAAAUGACACUGUCAACUAUUCAGUUUAGUGCCCUAGUUCAAUUUAUUUAACUUCUGCCCUUGUAGGCCUGGUGUGACCCAACAGAGGAUUGAGCAUCA
B5: 84151872_84151992_5108_CDS_ENSMUSG00000020532_ENSMUST00000020843|mouse|control|control (ssRNA)
RNA: GGGAGUUCUACAGUCCGACGAUCGUAGAUGCGUGGGAUGCCUUCUGCUCUGGCAAGUUCAGAAGCUCUGAGAAACAGCAAAUCCUCCUGAGGCCCAAAGGAACCGAUCCGAUAUGUAAUGUCAUUGCCGAUGACAAUGAUAUCCAACAGAGGAUUGAGCAUCA
B6: 61660918_61661038_860_3pUTR_ENSG00000136485_ENST00000310827|human|control|control (ssRNA)
RNA: GGGAGUUCUACAGUCCGACGAUCUAGGGUCCUGCUUGUUCCAGCAGAGGCGAAGCAGUGGGUGAUGCUGUGGGUCUUCGUAAAUGAUGGUGCUGUGUUCUAGAUGGCGGAGGUCAAACAUCCGCACCGAGCCAUCAGCACCCACAACAGAGGAUUGAGCAUCA
B7: 21897295_21898717_948_CDS_ENSG00000141447_ENST00000319481|human|control|control (ssRNA)
RNA: GGGAGUUCUACAGUCCGACGAUCCCUAUACCAUGAAAGGACUCCAUGCUCUAACACUACCCAGAAUAAUCUCCAGCCAAAAAAUCUUGAACUCUUCCAGAGAGGGCCCUCAUAUCGUUUCAAUGCUUUGUAGAUGACCUUAUUCAACAGAGGAUUGAGCAUCA
B8: chr14:62154062:62154063:-_ENSMUSG00000021930_ENSMUST00000100496|mus_mus|FALSE|FALSE (ssRNA)
RNA: GGGAGUUCUACAGUCCGACGAUCUUUUUUCAAAACCAGGUGGAGGAGUAUGAUAAAAUUCACUGAACUGGCAAUCCAGAAUUGCACUGUCGUCAACACUACAUCUCCCUCCUGAGGAAGGCUGUUUGCUGGCAGCCUGUUUUUCAACAGAGGAUUGAGCAUCA
B9: chr5:122268631:122268632:-_ENSMUSG00000042594_ENSMUST00000136960|mus_hu|FALSE|FALSE (ssRNA)
RNA: GGGAGUUCUACAGUCCGACGAUCAACCAGCUGAGCUGCUUUCACUCUGGAGAUGGGGCCGUGGAACCAGGGGUAGCAGGACAGGAAAUGGUCCGUCUUCUGGCAGGCCGGGUCCAGCAGCCCCCCAGGAGAAGCACCUUGGUUCAACAGAGGAUUGAGCAUCA
B10: 78798003_78798123_2598_CDS_ENSMUSG00000033088_ENSMUST00000109689|mouse|control|control (ssRNA)
RNA: GGGAGUUCUACAGUCCGACGAUCGCAGGGUGGCUGAGAGGACUCCAAAGAGGUCUGGGGAGCCCCUCGAGGUGCUGCGUGAAGAGGCGAUGAAGUCCUAGAGGCACUGGAAUGGCCAGGGUUAUGAGAGGAGGAGGAGGUGGUCAACAGAGGAUUGAGCAUCA
B11: chr5:80785125:80785126:-_ENSG00000145687_ENST00000509013|hu_mus|motif|central (ssRNA)
RNA: GGGAGUUCUACAGUCCGACGAUCGGCCGCCAGGGUACCGAGGCGACAUAAAAGGCUGAAAGAACCCUGGUGGCACGGGACCGGCUGGCAUGCCAUCUCCUGGGGGCAUGUUUCCUAGCACGGGGCUGGGAGCUGCUGCAGCACCAACAGAGGAUUGAGCAUCA
B12: chr17:57652765:57652766:+_ENSG00000108406_ENST00000251241|hu_hu|FALSE|FALSE (ssRNA)
RNA: GGGAGUUCUACAGUCCGACGAUCAUCAUAAUCAUAAUCAACAGACUCUGCCAUCUGAAAAAGUAACUCACAACUUUUUUCUAUUUCAAACUGGCCAGUCAGAAAAACCAAGAUGUCUCCAGCCAUUUCAUUCAAAUGGAUAUCCAACAGAGGAUUGAGCAUCA
B13: chr2:114697599:114697600:+_ENSG00000115091_ENST00000536059|hu_mus|FALSE|FALSE (ssRNA)
RNA: GGGAGUUCUACAGUCCGACGAUCGGACUGCUCAGGAGGGAUUCCUACUUCUCGGUCUCGCAGCAGUUGCUGAAUAAAAUAUGUUAUAUCUCUUCCUGCGAUUGGAAUGUGUUUAAUACAGCUGCCGAUAACAUAUCCUUCAGCCAACAGAGGAUUGAGCAUCA
B14: chr17:31789506:31789507:-_ENSMUSG00000061613_ENSMUST00000166526|mus_mus|motif|central (ssRNA)
RNA: GGGAGUUCUACAGUCCGACGAUCAGACUGGGAAGAGUUUUGAGGGUUACGGUAAAUGUUCAAGAGGGCAAUGGUCUGGCGGAAGGUUGGUUUAUUGUGCAACCGAGAACAUCUGUCUCCAUGACGACAUGCUCCGAUUUUGAACAACAGAGGAUUGAGCAUCA

target: T1, UNK ZnF1-3; experiment: nsRBNS (natural sequence RNA bind-n-seq); RBNS binding buffer (assumed for nsRBNS): 25 mM Tris pH 7.5, 150 mM KCl, 3 mM MgCl2, 0.01% Triton X-100, 500 ug/ml BSA, 20 U/ml SUPERase-In, 4 C; UNK is unkempt and MSI1 is Musashi-1; names of the RNAs are library labels; protein concentration not given here; high values mean tight binding

Row | Binder | binding signal
1 | B1 | 2.1 enrichment R
2 | B2 | 1.18 enrichment R
3 | B3 | 1.23 enrichment R
4 | B4 | 1.15 enrichment R
5 | B5 | 0.83 enrichment R
6 | B6 | 0.428 enrichment R
7 | B7 | 1.3 enrichment R
8 | B8 | 0.605 enrichment R
9 | B9 | 0.8 enrichment R
10 | B10 | 2 enrichment R
11 | B11 | 0.698 enrichment R
12 | B12 | 0.963 enrichment R
13 | B13 | 0.791 enrichment R
14 | B14 | 1.22 enrichment R
